In all, about 150,000 compounds went through this assay and about 540 (0.36%) showed an effect of 50% or more. The list shows a part of the results.
Each compound was assayed on Plasmodium falciparum (assay: Primary screen in NF54 nanoGlo assay, in single point, at 2uM, 72h; a lower Z score goes with more inhibition). Conditions: timepoint 72 hour.
Format: functional, Erythrocyte

Row | Structure (SMILES) | % Inhibition [%] | Z score
1 | CC(C)(C)OC(=O)NC[C@@H]1CCCN(CCCO)[C@@H]1C(F)(F)F | -7 | 0.64
2 | O=C(Nc1cccc(-c2ncc[nH]2)c1)c1ccccc1Br | 1 | -0.11
3 | C#CCCC1(CCC(=O)N2CCn3nccc32)N=N1 | -8 | 1.05
4 | CCc1n[nH]cc1C(=O)N1CCCC[C@@H]1CCc1ccccc1 | -1 | 0.15
5 | O=C(Cn1cc(F)ccc1=O)N1CCCc2ccccc21 | -16 | 2.21
6 | Cc1cc(C)c2c(N)c(C(=O)N(c3ccccc3)c3c(Cl)cccc3Cl)sc2n1 | -4 | 0.81
7 | CCOc1ccc(S(N)(=O)=O)cc1-c1nc(CC)no1 | -7 | 1.27
8 | NC(=O)C1CCN(CCCn2c(=O)[nH]c3ccccc32)CC1 | -12 | 1.83
9 | CCn1c(Cc2ccncc2)nnc1N1CCC(C)(COC)CC1 | -9 | 1.02
10 | CC(C)(C)[C@@](C)(C#N)NC(=O)Cc1ccc(F)cc1 | 16 | -1.88
11 | Cc1ncsc1C(=O)N1CCC2(CCC(=O)N(CCc3c[nH]cn3)C2)CC1 | -7 | 0.68
12 | CC(C)CCC(=O)N1CCC(N2CCC[C@H](C(=O)NCc3ccccn3)C2)CC1 | -2 | 0.28
13 | O=C(CCc1ccon1)N1CCC(Cc2c(F)cccc2F)CC1 | -11 | 1.34
14 | O=S(=O)(Nc1cc(F)c(F)cc1Cl)c1cnn([C@H]2CCOC2)c1 | 15 | -1.29
15 | Cn1ccc(NC(=O)COc2ccc(OCc3ccccc3)cc2)n1 | -7 | 1.01
16 | O=C(N[C@H]1CCN(c2ccc3nncn3n2)C1)OCC1CCC1 | -17 | 2.78
17 | CC1(NC(=O)CCc2cncc(F)c2)CCCCCC1 | -8 | 0.97
18 | CCc1nc(N(CCC(=O)NCc2ccco2)CC(C)C)c2cc(Cl)cc(Cl)c2n1 | 10 | -0.94
19 | CCc1noc([C@H](C)N2CCOc3cc(OC)ccc3C2)n1 | -2 | 0.35
20 | COc1cc(C(=O)Nc2[nH]c(=O)ncc2F)ccc1Cl | 76 | -11.96
21 | O=C(CCc1ccccc1)OC1CN(c2nc3ccccc3s2)C1 | -10 | 1.1
22 | CCc1nccn1Cc1cnc2ccccn12 | -8 | 1.25

Row | Structure (SMILES) | % Inhibition [%] | Z score
23 | COc1ccccc1[C@H]1CCCNCC1 | 9 | -0.83
24 | CC1CC(NC(=O)C(c2ccccc2)c2ccccc2)CC(C)(C)C1 (stereo not given) | 3 | -0.33
25 | CCc1nn(C)cc1CNC1CCCCC1C(N)=O (stereo not given) | -2 | 0.24
26 | COc1ccc(-c2noc(CCCC(=O)Nc3ccc4c(c3)OCCO4)n2)cc1OC | -11 | 1.01
27 | CCCn1ncc(C(=O)N2C[C@H](O)CO2)c1C | -12 | 1.08
28 | CC(C)c1noc(-c2ccnc(N3C[C@H](C(=O)N4CCOCC4)[C@@H](C)C3)c2)n1 | -16 | 3.15
29 | O=C(NCc1ccc(S(=O)(=O)N2CCCCCC2)s1)c1ccc(Cl)cc1 | -10 | 1.61
30 | CCCCCN(C)c1ccc(F)cc1CNCc1ccc(C(=O)NC)cc1 | -12 | 1.91
31 | O=C(CCN1CCOC1=O)NCCC1CC2CCC1C2 (stereo not given) | -14 | 2.36
32 | CS(=O)(=O)c1ccc([C@H]2CC(O)=Nc3c2c(=O)[nH]n3C2CCCCCC2)cc1 | -6 | 0.63
33 | COc1ccc(N2C(=O)CN(CCc3ccc(F)cc3)[C@H]3CS(=O)(=O)C[C@H]32)cc1Cl | -8 | 1.36
34 | Cc1cccc(C[C@H](C)n2ccnc2-c2ccncc2)n1 | 5 | -0.75
35 | Cc1c(C(=O)N2CCOCC2)c(S(=O)(=O)N2CCCc3ccccc32)c(C)n1C | -10 | 1.85
36 | CCc1nnc(CNC(=O)Nc2ccc(OC(F)(F)F)cc2)s1 | -10 | 1.81
37 | CCN1C(=O)[C@H]2[C@@H](C1=O)[C@@](CO)(C(=O)OC)N[C@H]2c1cccc(C#N)c1 | -6 | 1.09
38 | CC1CC1c1ccc(CNCC2(O)Cc3ccccc3C2)o1 (stereo not given) | -18 | 1.9
39 | COc1ccc(-c2ccc(=O)n(-c3c(C)noc3C)n2)cc1S(=O)(=O)Nc1ccc(Cl)cn1 | -2 | 0.4
40 | COc1ncccc1CNc1nc2ccccc2o1 | -16 | 2.99
41 | COc1ccc(-c2cccc(C(=O)N3CCNC(=O)[C@@H]3CCO)c2)c(C)c1 | -9 | 1.13
42 | Cc1ccc(OC2CCN(C(=O)c3ncoc3C3CC3)CC2)cc1 | -10 | 1.88
43 | O=C(Nc1ccc(-c2nncs2)cc1)N[C@H]1CCC12CCCC2 | -12 | 1.48
44 | Cc1cc(C(=O)Nc2cnn(CC(=O)N3CC(C)OC(C)C3)c2)ccn1 (stereo not given) | 8 | -0.96

Row | Structure (SMILES) | % Inhibition [%] | Z score
45 | C[C@](Nc1ccccc1)(C(=O)NCc1ccc(N2CCCC2=O)cc1)c1ccccc1 | -14 | 1.32
46 | CC1=NN=C(O)/C(=C\c2ccccc2)N1 | -15 | 1.7
47 | COc1cc(NC(=O)c2cc(NC3CCC3)cc(S(=O)(=O)N(C)C)c2)cc(OC)c1 | -12 | 1.38
48 | O=C(Nc1ccccc1)OCc1ccc(-c2ccc(Cl)cc2)o1 | 41 | -5.23
49 | Cc1sc2ncnc(N3CCc4onc(C(=O)N(C)C)c4C3)c2c1C | -7 | 0.67
50 | O=C1CC[C@H](Nc2cnc3ccccc3n2)C(=O)N1 | -8 | 1.34
51 | CC(C)(C)c1nc(CN2CCC[C@H]2C2CCCCC2)no1 | -2 | 0.19
52 | CC(=C(F)C(=O)N1CCC(Cc2c[nH]cn2)CC1)C1CC1 | -4 | 0.77
53 | O=C(CCCn1cncn1)NC1CCCCC1Oc1ccccc1 (stereo not given) | -9 | 0.93
54 | COc1cc2c(cc1C(=O)N[C@H]1CCOC[C@@H]1OCCN(C)C)CCC2 | -17 | 1.81
55 | Cc1ccc(-c2cc3n(n2)CCC(=O)N3CC(=O)NCc2ccc3c(c2)OCO3)cc1 | 4 | -0.46
56 | CC1CCN(CC(=O)NC(C)(C)C)C(C(C)O)C1 (stereo not given) | 4 | -0.59
57 | COc1ccccc1Nc1nc(N)nc(CN2CC[S@@+]([O-])C(C)(C)C2)n1 | 0 | 0.01
58 | CC1CCN(C[C@H]2CCCN(C(=O)CCc3ccccc3)CC2)CC1 | -8 | 1.29
59 | CN(Cc1cccc(OC(F)F)c1)c1nnc(-c2ccon2)s1 | -15 | 2.01
60 | O=C(NCCc1cc2ccccc2o1)c1cccnc1 | 2 | -0.26
61 | O=S(=O)(c1cccc(-c2ccc(Cl)cc2)c1)N1CCC(n2ccnn2)CC1 | -15 | 2.4
62 | CC(C)[C@H](NC(=O)Nc1ccccc1C(F)(F)F)C(=O)O | 3 | -0.37
63 | CC[C@H]1CCCN(C(C)(C)CNC(=O)c2cc(O)ccc2C(F)(F)F)C1 | 1 | -0.27
64 | C[C@H](O)CN1CCN(C(=O)c2cccc(Cn3ccnc3)c2)CC1 | -1 | 0.08
65 | COc1ccc(F)c(-c2cnc3nnc(C)n3c2)c1 | -5 | 0.65
66 | O[C@H]1CC[C@@H]1Nc1nc2cc(F)ccc2o1 | -10 | 1.93

Row | Structure (SMILES) | % Inhibition [%] | Z score
67 | CC(CC(=O)NC(C)c1cnn(C)c1)C(=O)c1ccc(Cl)cc1 (stereo not given) | -9 | 1.27
68 | NC(=O)CC1(NC(=O)Nc2cccc3c2CCO3)CCC1 | -9 | 1.29
69 | CN1CC(=O)N(CCCC(=O)N2CCC(CC(F)(F)F)CC2)C1=O | 0 | -0.04
70 | O=C(c1ccc(F)cc1)c1ccc(CN2C(=O)c3ccccc3C2=O)o1 | -13 | 2.39
71 | CCN(Cc1noc(CC(C)C)n1)C(=O)CCn1cncn1 | 3 | -0.57
72 | CCc1cccc(NC(=O)CN2C=NS(=O)(=O)c3ccc(C)cc32)c1 | 13 | -1.57
73 | CC(C)NC1CCN(c2ccc(C3OCCO3)c(Cl)c2C#N)CC1 | 5 | -0.8
74 | CN(C(=O)CN1CCC(C(=O)NCc2ccccc2)CC1)c1ccccc1 | 4 | -0.6
75 | CC(C)COc1cncc(N2CC3COCC(C2)O3)n1 | 1 | -0.17
76 | COCCc1nc(CNC(=O)N(C)Cc2cc3cc(F)ccc3[nH]2)no1 | -3 | 0.5
77 | CC(C)(C)c1cc(C(=O)N2CCc3c(F)ccc(C(=O)O)c3C2)[nH]n1 | -5 | 0.71
78 | COc1ccc(-c2nn(-c3ccccc3F)cc2CN2C[C@H]3CC[C@H]2C3)cc1 | -10 | 1.35
79 | O=C(NCc1cc(F)cc(F)c1)c1nn(-c2ccccc2)c2ccccc2c1=O | -5 | 0.63
80 | CCC[C@@H](C#N)NC(=O)c1sc(-c2cnn(C)c2)nc1C | -4 | 0.51
81 | CCC(=O)N(C)[C@@H](Cc1ccc(F)cc1F)C1CCN(C(=O)c2cccc(N3CCCC3=O)c2)CC1 | 1 | -0.25
82 | CCc1nn(C)cc1NC(=O)NCc1cc(C)nc(N)c1 | -6 | 0.65
83 | CCO[C@H]1CN(C)C[C@@H]1NC(=O)c1cccnc1NC | 2 | -0.28
84 | Cc1ccc([C@H](O)c2ccccn2)cc1NC(=O)C1(C)CCC1 | 5 | -1.02
85 | O=C1CN(CCn2cnnc2)CCN1Cc1ccccc1F | -4 | 0.62

From ChEMBL document CHEMBL4888484, “Replenishing the malaria drug discovery pipeline: Screening and hit evaluation of the MMV Hit Generation Library 1 (HGL1) against asexual blood stage Plasmodium falciparum ,using a nano luciferase reporter read-out” (2022)
